Test results from the supplement of paper PMC3724861.
The list shows a part of the results.

Test system: T1, Caupolican (Caup) homeodomain DNA-binding domain
T1 sequence: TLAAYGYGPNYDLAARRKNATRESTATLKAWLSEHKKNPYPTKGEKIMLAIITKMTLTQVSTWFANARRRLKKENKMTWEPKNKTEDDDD
Assay: PBM E-score (8-mer, recovered from the published 9-mer minima) (E-score (dimensionless, -0.5 to 0.5)); Drosophila protein; higher = stronger relative binding preference, active = 0.31 or more
Summary of the method: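 Caup's homeodomain DNA-binding domain (residues 214-303) was produced by in vitro transcription and translation and applied at 100 nM to custom-designed protein binding microarrays. Each value is an enrichment score giving relative binding preference for a short DNA word; higher means stronger. Published 9-mer scores were the minimum of their two constituent 8-mer scores, and the 8-mer values were recovered from those minima. A cutoff of 0.31 marks candidate binding sequences.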

Row | Sequence | PBM E-score
1 | CTCTTCCA | inactive: -0.116
2 | GCTAATAC | inactive: 0.0902
3 | CCCTTTCA | inactive: -0.126
4 | GTGGCCTA | inactive: -0.163
5 | ATGGGGTG | inactive: -0.023
6 | GGTTACGA | inactive: -0.0197
7 | CAGCGAAA | inactive: -0.0247
8 | CACTTTAC | inactive: 0.103
9 | ATTAAGGC | inactive: -0.0527
10 | AGGACGCC | inactive: -0.128
11 | CGTCTAAC | inactive: -0.00299
12 | CTAATCAA | inactive: 0.179
13 | AGGTCGAA | inactive: -0.0135
14 | AAGAATGT | inactive: 0.199
15 | CGACCCGA | inactive: -0.151
16 | CCAGGCGG | inactive: -0.185
17 | AGACGCGC | inactive: -0.0474
18 | GGTCCCAC | inactive: -0.204
19 | GGGTGGCA | inactive: -0.202
20 | AATAGCGT | inactive: 0.0707
21 | GAATGACA | inactive: 0.259

Row | Sequence | PBM E-score
22 | TCCGAGAA | inactive: 0.0132
23 | CCATAAAC | inactive: 0.00834
24 | GTAAGCGA | inactive: 0.0662
25 | CAGGTAAG | inactive: 0.0455
26 | CGAGCTCA | inactive: -0.105
27 | AGGCGGTA | inactive: -0.139
28 | CTGCAGGA | inactive: -0.0296
29 | CATACACG | active: 0.325
30 | ACACAAAT | inactive: 0.184
31 | AAGCATGG | inactive: 0.00906
32 | AGCTAACC | inactive: -0.0905
33 | ACTGATAT | inactive: 0.161
34 | AACACGAG | inactive: 0.266
35 | CCGCAGAG | inactive: -0.223
36 | ATTGCATA | inactive: 0.113
37 | ATGATGCA | ≥ 0.172
38 | CGATAACA | inactive: 0.244
39 | CGTTCAGA | inactive: 0.034
40 | CGGCGATA | inactive: 0.0135
41 | AGTACAAA | inactive: 0.26
42 | AAACTGCC | inactive: -0.00805

Row | Sequence | PBM E-score
43 | CGCTACCC | inactive: -0.164
44 | CAACACTG | inactive: 0.0579
45 | GCCTGGAA | inactive: -0.0661
46 | ACATGTAG | active: 0.476
47 | CAAACCAA | inactive: 0.112
48 | ACACGCGG | inactive: 0.151
49 | GCTACACC | inactive: 0.0733
50 | ATATAGCA | inactive: 0.128
51 | ACCTGAGG | inactive: -0.104
52 | GCGATAGA | inactive: -0.0431
53 | AAGATTAC | inactive: 0.0786
54 | ATCGTTGG | inactive: 0.0483
55 | AAGTATCA | inactive: 0.158
56 | GTTACCCA | inactive: 0.0172
57 | ATATGCAC | inactive: 0.103
58 | AGGTGGTC | inactive: -0.0482
59 | GATCGGAC | inactive: 0.106
60 | GGATTGAC | inactive: 0.0664
61 | ACGCCAAA | inactive: -0.0402
